We go through ten molecules from publication PMC10096524, “1-Benzyl-5-bromo-3-hydrazonoindolin-2-ones as Novel Anticancer Agents: Synthesis, Biological Evaluation and Molecular Modeling Insights” (Molecules, 2023).

The subject of one data set is MCF-10A cells. In words: Cytotoxicity on non-tumourigenic breast MCF-10A cells. It is filed as cell-based. The conditions noted are these: Homo sapiens, normal cells, read-out: IC50 against non-tumourigenic breast MCF-10A cells. An excerpt: Furthermore, in this study, we assessed the potential cytotoxic effect of the best anti-proliferative N-benzyl-5-bromoindolin-2-one derivatives 7c and 7d on the non-tumourigenic breast MCF-10A cells.
(§1) The experimental procedures for the performed pharmacological assays. MTT cytotoxicity, VEGFR-2 inhibitory activity, and cell cycle flow cytometry assays, as well as the assessment of the expression levels for the apoptotic markers, were described in the Supplementary Materials and performed as previously described.

The test system of another data set is caspase-3. Put plainly: Active caspase-3 level in MCF-7 cells. Type of data set: cell-based, human. Particulars: IC50 concentration. As for the experimental part:
(§2) The crucial apoptosis mediators are a family of cysteine-aspartic proteases known as caspases, whose activation has a significant impact on apoptosis induction. Accordingly, the impact of 1-benzyl-5-bromoindolin-2-one derivative 7d on caspase 3 was evaluated. Being the executioner caspase, its induction gives insight into the pro-apoptotic effect of 7d. Moreover, the effect of 7d on the activation of caspase-9 was determined for further evaluation of the pro-apoptotic activity.
as §1

The next data set concerns caspase-9. In words: Active caspase-9 level in MCF-7 cells. Type of data set: cell-based, human. Particulars: IC50 concentration. As for the experimental part: as §2, §1
Data set [1] relates to MCF-7 cells. Put plainly: Cell cycle analysis by flow cytometry in MCF-7 cells. The conditions noted are these: 24 h at IC50 concentration. It is filed as cell-based, human. As for the experimental part:
Cytotoxic agents abort cell growth by arresting their proliferation within definite, well-known checkpoints. After cancerous cells were treated with anti-tumour agents, distinguishing cells in different cell cycle phases could be detected. MCF-7 cells have been treated with 1-benzyl-5-bromo-3-hydrazonoindolin-2-one 7d at the IC50.
as §1
Figure 2 Effect of 7d on the cell cycle phases within MCF-7 cells after treatment for 24 h at the IC50 concentration. […]
evaluated using serial dilutions (10, 5, 2.5, 1, 0.1, 0.01 μM) against VEGFR-2 Kinase Assay Kit Catalog # 40325 (BPS Bioscience) according to manufacturer’s instructions. In brief, the master mixture was produced (25 μL per well) and poured into each well. Each well received 5 μL of inhibitor solution designated as "Test Inhibitor". […] The amount of VEGFR-2 required for the test was measured and the enzyme was diluted to 1 ng/ μL with kinase buffer. […] The luminescence was measured with a microplate reader.
The autophosphorylation percentage inhibition by compounds was calculated using the […]
On the technique in general: In flow cytometry, cells or beads pass a laser one at a time.

The subject of data set [2] is MCF-7 cells. Put plainly: MTT anti-proliferative assay, MCF-7 breast cancer cells. The conditions noted are these: Homo sapiens, MCF7, 48 h exposure, means ± S.D. of 3 separate experiments. It is filed as cell-based. Here is the method: The anti-proliferative effect of the newly prepared N-benzyl-5-bromoindolin-2-one derivatives 7a–d and 12a–e was assessed in two human tumour cell lines: A-549 lung cancer and MCF-7 breast cancer. As a reference antitumour drug, doxorubicin was exploited in this experiment. The findings were expressed as median growth inhibitory concentration (IC50) values (Table 1).
as §1
1. […]
The two examined human cancer cell lines (MCF-7 and A-549) have been obtained from American Type Culture Collection (ATCC). […] Cells were sub-cultured with trypsine /EDTA solution, counted with haemocytometer and plated onto 96-well plates (5000 cells/well) and left overnight to form a semi-confluent monolayer.
Cell monolayers were treated in quadrates with vehicle (DMSO, 0.1% v/v), test samples (7a-d and 12a-e) or doxorubicin as positive control for an exposure time of 48 h. […] DMSO (100 µl/well) was added to dissolve the formazan crystals with shaking for 10 min after which the absorbance was read at 590 nm against no cell blanks on a FLuo Star Optima microplate reader (BMG technologies, Germany). […]
In general terms: Tetrazolium assays rely on reduction of a dye to a coloured formazan, in cell work by metabolically active cells.

The test system of a further data set is NCI-USA anticancer assay. Also on record: method as in PMID 32775889. Particulars: cited from earlier work.
For another data set, the system named is chick embryos. The conditions noted are these: cited from earlier work.

What is called melting point is the temperature of the solid-liquid transition. `O=C1C(=NNc2nc(-c3ccc(Br)cc3)cs2)c2cc(Br)ccc2N1Cc1ccccc1` [Compound 7b]: the melting point was in the range of 248 to 249 °C.

For orientation: IC50 means the point on the concentration scale where inhibition reaches its midpoint. Take `O=C1C(=NNc2nc(-c3ccc(F)cc3)cs2)c2cc(Br)ccc2N1Cc1ccccc1` [Compound 7c]: the IC50 in the data set with MCF-10A cells worked out at 91.3 ± 3.51 µM.

Regarding `O=C1C(=NNc2nc(-c3ccc(Cl)cc3)cs2)c2cc(Br)ccc2N1Cc1ccccc1` [Compound 7d], the IC50 with MCF-10A cells worked out at 83 ± 4.1 µM. The “induction of active caspase-3 level compared to control” value in the data set on caspase-3 was determined as 18.3 fold. Besides, the “potentiation of active caspase-9 level compared to control” value with caspase-9 is reported as 16.7 fold. Besides, in the data set with MCF-7 cells [1], the “cells in the G2/M phase” value was found to be 15.5% and the “cells in the sub-G1 phase” value is recorded as 9.7%.

As to `Cc1nc(NN=C2C(=O)N(Cc3ccccc3)c3ccc(Br)cc32)sc1N=Nc1ccc([N+](=O)[O-])cc1` [Compound 12b], the melting point is more than 300 °C. In the data set on MCF-7 cells [2], this molecule gave an IC50 of more than 100 µM.

Consider `Cc1nc(NN=C2C(=O)N(Cc3ccccc3)c3ccc(Br)cc32)sc1N=Nc1ccc(F)cc1` [Compound 12c], for which the melting point was more than 300 °C.

Regarding `Cc1nc(NN=C2C(=O)N(Cc3ccccc3)c3ccc(Br)cc32)sc1N=Nc1ccccc1` [Compound 12a], the melting point was more than 300 °C.

The molecule `Cc1nc(NN=C2C(=O)N(Cc3ccccc3)c3ccc(Br)cc32)sc1N=Nc1ccc(S(N)(=O)=O)cc1` [Compound 12e] yielded a melting point of more than 300 °C.

For the molecule `O=C1C(=NNc2nc(-c3ccccc3)cs2)c2cc(Br)ccc2N1Cc1ccccc1` [Compound 7a], the melting point is 223 to 225 °C.

Consider `Cc1nc(NN=C2C(=O)N(Cc3ccccc3)c3ccc(Br)cc32)sc1N=Nc1ccc(Cl)cc1` [Compound 12d], for which the melting point was more than 300 °C.

Regarding `COc1ccc2c(c1)/C(=N\Nc1nnc3n1N=C(c1ccccc1)CS3)C(=O)N2` [Compound I], the growth inhibition mean in the data set on NCI-USA anticancer assay is on record as 40%. In addition, the “effect on developed blood vessels” value with chick embryos (HET-CAM) is “remarkably reduced the developed blood vessels”. In the data set on chick embryos (in vivo), the “toxicity for the chick embryos” value is “not toxic”.
